Measured values published in the supplement of paper PMC3334620.
In all, about 33,000 sequences were measured (“E-score (-0.5 to 0.5)”: median about -0.043, highest 2% from about 0.37 on). The list shows a part of the results.

Target: T1, Upc2 (UniProt Q12151)
T1 sequence: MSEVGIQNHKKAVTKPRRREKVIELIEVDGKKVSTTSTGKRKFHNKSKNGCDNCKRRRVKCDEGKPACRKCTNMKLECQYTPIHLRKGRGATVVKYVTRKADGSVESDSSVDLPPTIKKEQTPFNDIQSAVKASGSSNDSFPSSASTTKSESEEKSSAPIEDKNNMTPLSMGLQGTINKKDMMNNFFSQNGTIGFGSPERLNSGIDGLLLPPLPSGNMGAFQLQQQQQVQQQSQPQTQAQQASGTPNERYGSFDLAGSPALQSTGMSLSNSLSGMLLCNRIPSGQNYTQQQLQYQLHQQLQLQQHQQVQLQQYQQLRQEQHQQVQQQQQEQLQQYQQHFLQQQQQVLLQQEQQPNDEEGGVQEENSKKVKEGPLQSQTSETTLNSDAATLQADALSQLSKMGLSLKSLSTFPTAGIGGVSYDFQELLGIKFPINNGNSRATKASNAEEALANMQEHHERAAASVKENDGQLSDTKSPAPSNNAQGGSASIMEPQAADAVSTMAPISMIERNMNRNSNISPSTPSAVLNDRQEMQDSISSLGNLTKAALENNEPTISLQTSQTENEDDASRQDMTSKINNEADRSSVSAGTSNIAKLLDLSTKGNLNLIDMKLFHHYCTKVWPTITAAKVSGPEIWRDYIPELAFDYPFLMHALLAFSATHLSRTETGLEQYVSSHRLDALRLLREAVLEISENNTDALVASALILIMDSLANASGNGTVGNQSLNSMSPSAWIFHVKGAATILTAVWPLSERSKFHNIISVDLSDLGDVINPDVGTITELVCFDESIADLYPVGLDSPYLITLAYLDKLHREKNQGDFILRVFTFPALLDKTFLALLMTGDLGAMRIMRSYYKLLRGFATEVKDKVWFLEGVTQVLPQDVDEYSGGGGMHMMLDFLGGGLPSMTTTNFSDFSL
Test: PBM E-score (8-mer binding enrichment) (E-score (-0.5 to 0.5)); higher = stronger / more preferred TF binding; most listed sequences are background and not binding sites
Conditions: protein concentration: 200 nM; construct: GST-full length
In short: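 Detection of bound protein used fluorescent anti-GST, with scans normalised by masliner. The proteins were GST-tagged yeast transcription factors applied at about 100-200 nM to universal all-10-mer Agilent arrays made double-stranded by primer extension. Each ungapped eight-base word, pooled with its reverse complement, was scored with an E-score from the Universal PBM Analysis Suite.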

Sequence | PBM E-score
GGCCTAGA | -0.258
AGGTAGTC | -0.175
ACTCTGAC | -0.106
CGTAAAAC | 0.389
CGACATTA | 0.178
GTAGCCTA | -0.0336
GTAGCGAC | -0.0629
GCATTGAA | 0.0862
CATCTTTC | -0.0518
ACACCCAT | 0.148
GCTAACGA | 0.304
AACTTACA | -0.0411
CATAAATG | -0.27
ACTCATCG | -0.074
GACAGGAC | -0.0481
CGTGTCCC | -0.0379
GGCCAGGA | -0.223
AAGTAAGA | -0.183
AAGGCACG | 0.0329
AAATGTCC | -0.0702
AATGGCGT | 0.039
AAATTCCC | -0.178
GCGCTACA | 0.00749
GGGGGATA | -0.161
GTCGTGTA | 0.308

Sequence | PBM E-score
AACCCACG | 0.00587
ATATAGAT | 0.216
AAAATGTG | -0.179
CCGTGATA | -0.127
GAGTGGAC | -0.0953
GCGATGAC | 0.177
AATCCACA | -0.135
CCGTCAAC | -0.103
AGGTTGGG | -0.0253
CACCCCAG | -0.161
TCACCCCA | -0.133
AATATCCA | -0.0466
AGTATGAC | 0.0571
CAGTTGCA | -0.0182
CATGTTAC | 0.0816
GTAGCAAA | 0.033
ATAGCTGA | -0.103
GATTTCCA | -0.112
AAACCAGG | 0.00031
ACCCTCAC | -0.244
GGAAGATA | 0.013
CGCACCTC | -0.0714
AAGCTAGA | -0.166
GTTAATGA | 0.135
CGACAGCC | 0.0974

Sequence | PBM E-score
AAGACATC | -0.298
CACGCAGG | -0.0978
TAGCGTCA | -0.0212
CAGCCCCG | 0.0051
CCATAGCC | -0.305
CCGGCCGA | -0.214
CACTCTTC | -0.0626
ATCGGCAT | 0.0274
GCGGCAAA | -0.153
AATCCCCC | -0.144
ATGTAATC | 0.0213
AATCGCTG | -0.0811
CGAATGTA | 0.195
CAGCAAGA | -0.0837
CGCCATTA | -0.0838
CTGCAAAC | 0.0943
AATGAAGC | -0.0566
CCCTGTCC | 0.00553
GACTTGAC | -0.266
CCGTCTTA | -0.0104
ACCGCTTA | 0.144
CTCCTAAA | -0.0262
CAATATTA | 0.232
TAGGAAAA | -0.305
AAGCTCGG | 0.0373

Sequence | PBM E-score
ATTGTTCC | 0.00512
AGGCGGAG | -0.075
AGTCGGCA | -0.0445
GCGCAGCC | -0.211
AGAGATTG | -0.0876
AGAGCTGA | -0.202
ATGCTTAG | -0.132
AAGAAGCT | -0.0485
TACCGAAA | 0.201
TACACAGA | -0.0979
CCTTACAC | 0.0063
AACAAGCG | 0.259
GACCATTA | -0.0333
ACTTACAC | -0.034
AGCGCCTG | 0.00494
CAATGTCG | 0.0532
AATGAGTC | -0.0524
CTTAGCGA | 0.271
GCGTTGCC | -0.132
CGAGCCGC | 0.252
ATCCTAAC | -0.0571
AGGTAAGG | -0.232
AGACTACT | 0.0886
ACAAATGA | -0.15
GGACGCCA | -0.232

Sequence | PBM E-score
GCCGACCA | -0.185
CATAGGGG | -0.184
CGCGTGAA | 0.199
ATGGTCAG | -0.0547
GAACTGGA | -0.0503
TATGAAAA | 0.109
AGGATTAA | -0.119
GATAGGCA | -0.0012
CAAACTCC | 0.0564
TGAGCTAA | -0.173
AGAGACAA | -0.152
AACATGGT | -0.111
GGAGCTAA | -0.00672
ACTCCTCC | -0.178
TCGAAAAA | 0.22
AGGCATGA | -0.264
AAACCGTC | -0.0199
TACTTCGA | 0.105
ACGTAAAC | 0.345
AATGCTAT | -0.0104
GGGCTAGA | -0.136
GGTTCCAA | -0.0574
ACAACTAG | -0.0657
AACAGCGC | 0.0168
AAGCCTCA | -0.228

Sequence | PBM E-score
TCTCCTAA | -0.00947
CAGCGCCC | -0.307
CTAATTGC | 0.0187
GTCGGCAA | 0.156
CCTGTTGC | -0.105
GGGTCTCA | -0.36
GGGATAAC | -0.0776
AATAGGCT | -0.0238
AAGACCCG | -0.107
CAAATGCC | -0.201
CCGAGCGA | 0.193
GAACTCCC | 0.129
GGGCCTCA | -0.145
GGAGCTTA | -0.0696
ACTTTATC | 0.016
AGCTGCAA | -0.26
ACCGACTA | 0.0499
CGATTTGA | 0.17
GACCCCGA | -0.131
GGGTGGAC | -0.204
CGCCGTTA | 0.251
GGTTCCCA | -0.0861
GGAATGAC | -0.254
ATAACCAC | 0.0671
GTCACGAC | -0.0899

Sequence | PBM E-score
CCCAACAG | -0.24
ATTGGAGC | -0.169
AAATCAGT | 0.0223
CAAACGCC | 0.141
CAGACGAC | 0.0855
ACGTTAGA | 0.0666
AAGTCACA | -0.153
GTGCCTTA | -0.146
AGTACCTC | -0.276
GTTTAACA | 0.246
GAACAGGA | -0.129
AGTGATAC | 0.153
ATGTCTAA | -0.133
CCTCCACA | -0.239
CAAGTTGC | 0.137
GATACGAC | 0.468
GGCTTCCC | -0.208
AGGTCGAT | 0.106
ACGTTCAT | 0.169
AAGAATCT | -0.148
GACACCCA | -0.229
GGGCCAGA | -0.184
